The structures appear in SMILES notation. Among all 45,000 compounds or so, about 200 (0.44%) were called active. Not shown: some 7% with an inconclusive outcome. Calls come from the whole dose curve; as a rule, active = well fitted activation curve with a large enough effect; inconclusive = small, poorly fitted or top-dose-only effect; inactive = no such curve, though single readings can be large or run the other way. The list shows a part of the results. Square brackets hold non-standard residues; d marks the D form. Peptide text beside a SMILES is read from it. ξ: configuration not given here. ξM = CSCCC(N)C(=O)O

The test can be described thus: qHTS of TDP-43 Inhibitors: NCGC Sytravon Library Screen. Note: 0% is about no effect; nearly all actives have a fitted effect of over 55% in size. The settings on record: yeast TDP-43 toxicity rescue, BacTiter-Glo growth, 24 h; series mostly up to 46.1 µM; growth rescue (activation): at the top concentration. The source says: The goal of this project is to identify new chemical probes capable of reversing the toxicity associated with TDP-43 which is associated with frontotemporal lobar degeneration and amyotrophic lateral sclerosis. These compounds will provide a complementary approach to deciphering the tangled mechanisms of toxicity and protection that we have uncovered through genome-wide genetic screens and are beginning to uncover in a large-scale proteomics analysis with mass spectroscopy. To this end, a miniaturized assay was developed to be screened against the Molecular Libraries Small Molecule Repository (MLSMR) to discover TDP-43 inhibitors. Please note that in the set-up this yeast-based assay compounds that inhibit as TDP-43, have a read-out as activators. NIH Chemical Genomics Center [NCGC] NIH Molecular Libraries Probe Centers Network [MLPCN] Assay Submitter (PI): Susan Lindquist, Whitehead Institute/MIT MLPCN Grant: R21 NS060957
Dispense 2.5 microL yeast galactose medium per 1536-well plate, pin compound, dispense 2.5 microL TDP-43 expressing yeast in galactose medium at OD600=0.02 (pregrown in raffinose medium to mid-log phase) per well, incubate for 24 hr at 30 deg C, and cell growth will be measured using 5 microL of Bactiter/Glo reagent to entire plate and read using Luminescence Protocol in ViewLux.
For orientation: qHTS replaces the single test concentration by a dilution series.
Turning to `COc1cccc(NC(=O)CN(C)CC(=O)Nc2ccc(C)c([N+](=O)[O-])c2)c1`, the “growth rescue (activation)” value was inactive: 22.1%.

For the molecule `COCCN(Cc1cc2cc(C)ccc2n2nnnc12)C(=S)Nc1ccc(C)cc1`, the “growth rescue (activation)” value was inactive: -3.63%.

With `COc1ccccc1/C=N/OCc1ccc(C#N)cc1`, the “growth rescue (activation)” value is inactive: 3.54%.

Turning to `Cc1ccc(-c2cn3ccc(C)cc3n2)cc1`, the “growth rescue (activation)” value was inactive: 7.05%.

`NS(=O)(=O)c1ccc(CCNC(=S)NC(=O)c2ccccc2Br)cc1`: the “growth rescue (activation)” value is inactive: -6.3%.

Turning to `COc1ccc(N=N/C(=C\O)C(=O)c2cccs2)cc1`, the “growth rescue (activation)” value is inactive: 22.1%.

With `Cc1ccc(OCCCC(=O)Nc2ccc(S(=O)(=O)Nc3ccccn3)cc2)cc1`, the “growth rescue (activation)” value was inactive: 2.37%.

For the molecule `CC(=O)N1C(=O)N(C)C2C1N(C(C)=O)C(=O)N2C` (stereo not drawn), the “growth rescue (activation)” value is inactive: 10.6%.

As to `Cc1cccc(NC(=O)Cn2c(=O)n(CCCCCC(=O)NCc3ccc4c(c3)OCO4)c(=O)c3sccc32)c1`, the “growth rescue (activation)” value was inactive: 5.83%.

As for `CCOC(=O)C1(CCc2ccccc2)CCN(C(=O)[C@@H]2C[C@@H](C)NC(=S)N2)CC1`, the “growth rescue (activation)” value was inactive: -12.7%.

Consider `COc1ccc(C(=O)Nc2ccc(N3CCCCC3)cc2)cc1Br`, for which the “growth rescue (activation)” value is inactive: 9.18%.

Turning to `CC(C)CC(NC(=O)c1ccc(C#CC(C)(C)O)s1)C(=O)O` (stereo not drawn), the “growth rescue (activation)” value was inactive: -2.77%.

As for `Cc1ccc(CCC(=O)Nc2ncc(Cc3cc(Cl)ccc3Cl)s2)o1`, the “growth rescue (activation)” value is inactive: 16.3%.

Consider `CCN(CC)C(=O)COc1ccc(/C(C)=N/NC(=O)c2ccccc2O)cc1`, for which the “growth rescue (activation)” value was inactive: 2.45%.

Turning to `O=C(c1ccc2c(c1)N(Cc1ccccc1)C(=O)c1ccccc1S2(=O)=O)N1CCN(Cc2ccccc2)CC1`, the “growth rescue (activation)” value was inactive: 12.9%.

With `O=C(CSc1nnc(-c2ccccc2)n1-c1ccccc1)c1ccc[nH]1`, the “growth rescue (activation)” value is inactive: 4.92%.

In the case of `CC(C)[C@H](NS(=O)(=O)c1ccc2c(c1)OCCO2)C(=O)OCC(=O)Nc1ccccc1Cl`, the “growth rescue (activation)” value is inactive: 27.5%.

Take `O=C(OCC(=O)c1ccc[nH]1)c1ccc(C(F)(F)F)cc1`: the “growth rescue (activation)” value was inactive: 9.59%.

`O=C(CSCc1cccc(Br)c1)NC1CC1`: the “growth rescue (activation)” value is inactive: 32.3%.

Consider `CSCCC(NS(=O)(=O)c1ccc(Cl)cc1)C(=O)OCc1cccc(Cl)c1` (stereo not drawn), for which the “growth rescue (activation)” value was inactive: -3.95%.

For `O=C(O)c1ccccc1CSC1=NCCS1`, the “growth rescue (activation)” value is inactive: 10.5%.

Take `C=CCSc1nc(C)c(CCC(C)C)c(=O)[nH]1`: the “growth rescue (activation)” value was inactive: 29.3%.

Take `CCCC(=O)Nc1c(-c2cccc(C)c2)c(=O)c2ccccc2n1C`: the “growth rescue (activation)” value is inactive: -4.02%.

`COc1ccc(NC(=O)CCC(=O)c2cccs2)cc1Cl`: the “growth rescue (activation)” value is inactive: -11.8%.

On to `Cc1cc(S(=O)(=O)N2CCOCC2)ccc1OCC(=O)NCCCn1ccnc1`, for which the “growth rescue (activation)” value was inactive: -2.82%.

For `Cc1ccc(C)c(N2CC(C(=O)OCC(=O)Nc3cc(C)on3)CC2=O)c1` (stereo not drawn), the “growth rescue (activation)” value was inactive: -4.61%.

Regarding `COc1ccc(NC(=O)Cc2coc3ccc4ccccc4c23)cc1S(=O)(=O)N1CCOCC1`, the “growth rescue (activation)” value was inactive: -6.77%.

As to `Cc1ccc(/C=C(\C#N)C(=O)Nc2cccc(Br)c2)o1`, the “growth rescue (activation)” value is inactive: 26%.

In the case of `Cc1cnc(C(=O)OCc2ccc(Br)cc2)cn1`, the “growth rescue (activation)” value was inactive: -1.72%.

Take `Cc1nc2c(OCCN3C(=O)c4ccccc4C3=O)cccn2c1N(C)C(=O)CCC1CCCC1`: the “growth rescue (activation)” value is inactive: 7.06%.

In the case of `CN(C)c1ccc(C(=S)N2CCNCC2)cc1`, the “growth rescue (activation)” value is inactive: 7.15%.

For `COC(=O)CNC(=O)C(CCSC)NC(C)=O` (stereo not drawn) (Ac-[ξM]-Gly-OMe), the “growth rescue (activation)” value was inactive: 3.06%.

As for `CCN(CC)CCNCc1cc(Br)ccc1OCC(=O)NCc1ccccc1`, the “growth rescue (activation)” value was inactive: 2.21%.

For `Cc1ccc(NC(=O)CCC(=O)N/N=C/c2cc([N+](=O)[O-])ccc2O)cc1`, the “growth rescue (activation)” value is inactive: 5.45%.

In the case of `COCCCn1c(-c2ccccc2)nc2ccccc2c1=O`, the “growth rescue (activation)” value is inactive: -4.61%.

For the molecule `CCC(CC)NC(=O)c1nn(Cc2ccccc2)c(=O)c2ccccc12`, the “growth rescue (activation)” value was inactive: 20.6%.

As for `Nc1nn(-c2ccccc2)nc1C(=O)OCc1ccccc1`, the “growth rescue (activation)” value is inactive: -7.75%.

On to `N#C/C(=C/C1=C(N2CCOCC2)C(=C/c2ccc(Cl)cc2Cl)/CC1)C(=O)Nc1ccccc1F`, for which the “growth rescue (activation)” value is inactive: 3.59%.

For the molecule `Cc1nc2ccc(S(=O)(=O)NCC(=O)Nc3ccc(F)cc3F)cc2s1`, the “growth rescue (activation)” value was inactive: 15.2%.

For the molecule `CCOc1ccc(C(=O)CCC(=O)NC(C)C(=O)OC)cc1` (stereo not drawn), the “growth rescue (activation)” value is inactive: 8.35%.

`Cc1c(C(=O)NCCc2ccccc2)oc2ccccc12`: the “growth rescue (activation)” value is inactive: 23.4%.

In the case of `CCOc1cccc(N(C(=O)c2ccco2)C(C(=O)NC2CCCC2)c2cccnc2)c1` (stereo not drawn), the “growth rescue (activation)” value is inactive: 16.7%.

For `COc1cc(C2C(N3C(=O)c4ccccc4C3=O)C(=O)N2c2ccc(C)c(C)c2)cc(OC)c1OC` (stereo not drawn), the “growth rescue (activation)” value is inactive: -4.13%.

Regarding `O=C(CSc1ncccn1)Nc1ccc(Cl)c(S(=O)(=O)N2CCOCC2)c1`, the “growth rescue (activation)” value was inactive: -3.09%.

As for `CC(=O)Nc1cc(-c2nn(C)c(=O)c3ccccc23)ccc1N1CCOCC1`, the “growth rescue (activation)” value is inactive: 9.61%.

With `N=c1c2c(ncn1CCN1CCOCC1)Oc1cc(O)ccc1C2c1ccccc1` (stereo not drawn), the “growth rescue (activation)” value was inactive: 8.87%.

`CCOC(=O)c1c(N=CN(C)C)c2cc([N+](=O)[O-])cnc2n1C`: the “growth rescue (activation)” value was inactive: -65.4%.

Take `CC(=O)N(c1nnc(-c2cccc(C)c2)s1)C1CCCC1`: the “growth rescue (activation)” value was inactive: 17.1%.

Take `Cc1c(C(=O)N(C)Cc2ccccc2)oc2c(Cl)cccc12`: the “growth rescue (activation)” value was inactive: 9.77%.

Turning to `CCOC(=O)N1CCN(Cc2ccc(O)c3ncccc23)CC1`, the “growth rescue (activation)” value was inactive: -28.4%.

For the molecule `COc1ccccc1C(=O)NNC(=S)NC(=O)c1ccco1`, the “growth rescue (activation)” value is inactive: -72%.

For the molecule `O=C(CCC(=O)Nc1ccccc1)NNC(=O)c1ccccc1Cl`, the “growth rescue (activation)” value was inactive: 6.9%.

In the case of `CCCCN(C(=O)c1ccc(-n2nc(C)cc2C)cc1)c1c(N)n(CCC)c(=O)[nH]c1=O`, the “growth rescue (activation)” value is inactive: 17.6%.

The record behind these values is PubChem BioAssay AID1347073 (National Center for Advancing Translational Sciences (NCATS), 2019).
